Experimental data: article PMC4336329 (PLoS ONE, 2015)
About 2,200 (0.71%) of roughly 310,000 compounds showed an effect of 50% or more. The effect is printed as a negative number. The list shows a part of the results.

Each compound was assayed against human ether-à-go-go-related gene (hERG) potassium channel (human, UniProt Q12809) (assay: primary screen, population patch clamp on CHO cells stably expressing hERG).
Sequence of human ether-à-go-go-related gene (hERG) potassium channel (Q12809 whole entry, looked up): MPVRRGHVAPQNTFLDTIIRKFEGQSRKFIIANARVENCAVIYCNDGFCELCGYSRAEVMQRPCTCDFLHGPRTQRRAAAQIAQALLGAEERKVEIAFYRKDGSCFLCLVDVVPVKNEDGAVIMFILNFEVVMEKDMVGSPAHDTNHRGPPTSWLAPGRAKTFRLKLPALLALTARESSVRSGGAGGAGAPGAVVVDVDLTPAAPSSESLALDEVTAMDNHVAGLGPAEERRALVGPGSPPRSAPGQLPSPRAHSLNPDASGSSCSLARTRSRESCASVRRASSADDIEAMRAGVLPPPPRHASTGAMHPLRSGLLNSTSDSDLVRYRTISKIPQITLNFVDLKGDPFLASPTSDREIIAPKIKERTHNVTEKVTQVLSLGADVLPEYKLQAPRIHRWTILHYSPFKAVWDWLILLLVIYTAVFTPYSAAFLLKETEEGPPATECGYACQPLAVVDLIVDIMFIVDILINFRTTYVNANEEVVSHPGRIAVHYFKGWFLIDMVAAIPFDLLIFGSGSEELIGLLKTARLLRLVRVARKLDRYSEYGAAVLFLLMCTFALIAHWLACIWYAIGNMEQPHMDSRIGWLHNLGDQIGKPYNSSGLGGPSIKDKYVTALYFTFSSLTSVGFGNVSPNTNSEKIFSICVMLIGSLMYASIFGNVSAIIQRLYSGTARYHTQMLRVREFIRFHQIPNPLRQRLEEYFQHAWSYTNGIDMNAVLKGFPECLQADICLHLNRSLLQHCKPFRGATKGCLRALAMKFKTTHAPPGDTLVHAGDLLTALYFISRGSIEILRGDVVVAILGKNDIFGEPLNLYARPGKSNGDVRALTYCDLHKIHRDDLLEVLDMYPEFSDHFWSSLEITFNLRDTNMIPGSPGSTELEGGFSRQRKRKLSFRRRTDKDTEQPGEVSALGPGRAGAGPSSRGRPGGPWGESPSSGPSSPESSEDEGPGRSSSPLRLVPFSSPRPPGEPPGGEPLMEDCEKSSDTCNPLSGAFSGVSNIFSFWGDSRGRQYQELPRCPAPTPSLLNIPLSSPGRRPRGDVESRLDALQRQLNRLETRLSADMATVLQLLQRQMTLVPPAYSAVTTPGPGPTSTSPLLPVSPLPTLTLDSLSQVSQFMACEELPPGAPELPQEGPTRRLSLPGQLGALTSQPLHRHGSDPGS

Structure (SMILES) | hERG current change (%, negative = inhibition) at 1uM
CCOc1ccc(N(CC(=O)O)S(=O)(=O)c2ccc(OC)c(OC)c2)cc1 | 9.21%
COc1ccccc1N1CCN(CC(O)COc2ccc(S(=O)(=O)N3CCOCC3)cc2)CC1.Cl (stereo not shown) | 7.63%
CCOC(=O)c1cc(S(=O)(=O)N2CCN(C(=O)OCC)CC2)cn1C | 8.69%
Cc1ccc(CNC(=O)c2nnn(-c3cccc(C)c3)c2N)cc1 | -5.66%
O=C(COC(=O)Cc1ccc(Cl)c(Cl)c1)Nc1ccc2[nH]c(=O)[nH]c2c1 | 6.44%
CCOc1cc(CNCCCN2CCOCC2)ccc1OCC(=O)NC(C)(C)C.Cl | 9.51%
O=C1CC2(CC(c3ccc(Cl)cc3)=NO2)C(=O)N1c1ccccc1 (stereo not shown) | 5.02%
CC(=O)c1cc2c(cc1N/C(=N/S(=O)(=O)c1ccc(C)cc1)c1ccc(Cl)cc1)OCO2 | 11.6%
Cc1c(Cl)cccc1NC(=S)NCCc1ccccn1 | 9.98%
Nc1cccc2c1C(=O)N(CCOc1ccc(F)cc1)C2=O | 7.35%
O=C(CCSc1nnc2ccc3ccccc3n12)Nc1ccc(F)cc1 | 8.44%
COc1cccc(CN2CC(C(=O)NCCCc3ccncc3)CCC2=O)c1 (stereo not shown) | 21.4%
Cc1ccc(C)c(NC(=O)CSc2nnc(-c3ccco3)o2)c1 | 3.71%
CC1CCN(C(=O)c2ccccc2NC(=O)Nc2ccccc2)CC1 | -0.689%
CCC(C)(C)n1nnnc1C(c1ccncc1)N1CCC(C)CC1 (stereo not shown) | -0.168%
CC(=O)c1ccc(-c2ccc(C(=O)N(C)c3c(N)n(Cc4ccccc4)c(=O)[nH]c3=O)o2)cc1 | -2.54%
CC(C)NS(=O)(=O)c1ccc(OCC(=O)N2CCN(Cc3ccccc3)CC2)c(Cl)c1 | 9.36%
CC(C)(C)C1CCC2(CC1)SCC(=O)N2c1ccccc1 (stereo not shown) | 16.8%
CC(C)N1CCc2c(sc(NC(=O)c3ccc(S(=O)(=O)N4CCOCC4)cc3)c2C(N)=O)C1 | 2.73%
COc1ccc(C(=O)N/C(=C\c2cn(C)c3ccccc23)C(=O)N2CCOCC2)cc1OC | 18.8%
CCC1(c2ccccc2)NC(=O)N(CC(=O)Nc2ccccc2C(=O)NC2CC2)C1=O (stereo not shown) | 9.37%
CN(C)N1C(=O)CC(N2CCCC2)C1=O.Cl (stereo not shown) | 7.98%

Structure (SMILES) | hERG current change (%, negative = inhibition) at 1uM
COc1cc(NC(=O)CCC(=O)c2cccs2)cc(OC)c1 | 9.44%
CC(C)(C)SCCNC(=O)c1ccc(CN2CCc3ccccc3C2)cc1 | 13.2%
CS(=O)(=O)N(CC(=O)NCc1ccccc1Cl)c1cccc([N+](=O)[O-])c1 | -0.378%
O=C(NCc1ccco1)/C(=C/c1ccccc1)NC(=O)c1ccco1 | 10.1%
COc1ccc(C(CC(=O)O)NC(=O)COc2cc(C)ccc2C)cc1OC (stereo not shown) | 11.4%
Cc1cc(C(=O)N2CCN(Cc3ccc4c(c3)OCO4)CC2)on1 | 6.09%
Cc1ccc(CC(=O)NC2CCCc3ccccc32)cc1C (stereo not shown) | -6.48%
CCN(CC(=O)Nc1ccc2c(c1)OCCO2)Cc1nc2cc(Cl)ccc2c(=O)[nH]1 | 7.69%
COCCn1cc(C(=O)NCCN(C)C)c2c3ccccc3n(C)c2c1=O | 11.7%
O=C(OCCOCCN=C1NS(=O)(=O)c2ccccc21)c1ccccc1Br | 8.71%
Cc1ccc2c(c1)N(S(=O)(=O)c1ccc(CN3C(=O)c4cccnc4C3=O)cc1)CCO2 | 15.9%
CN(Cc1ccc2nonc2c1)Cc1nc(Cc2cccc(F)c2)no1 | 10.2%
CCCCC1CC(CSc2ncn[nH]2)OC1=O (stereo not shown) | 10.2%
Cc1c(CC(=O)N[C@@H](C)C(=O)O)c(=O)oc2cc3c(cc12)CCC(C)(C)O3 | 14.2%
Cc1ccccc1CNC(=O)c1ccc(CSCc2ccccc2)cc1 | 12.7%
CCn1c(=O)n(CCOC)c(=O)c2c3c(sc21)CCCC3 | -6.15%
Cc1sc2ncnc(N3CCC(C)CC3)c2c1C | 9.71%
Cc1ccc(SC(C)C(=O)NCc2ccncc2)cc1 (stereo not shown) | 5.75%
CN(C(=O)C1CCC(CNS(=O)(=O)c2cccc3cccnc23)CC1)C1CCCCC1 (stereo not shown) | 8.2%
COc1ccc2oc(C(=O)c3ccccc3)c(N)c2c1 | 7.89%
Cc1ccccc1NS(=O)(=O)c1nnc(NC(=O)c2ccccc2C)s1 | -15.6%
COc1cccc(OCC(O)CN2CCN(C)CC2)c1.O=C(O)C(=O)O (stereo not shown) | 15.3%

Structure (SMILES) | hERG current change (%, negative = inhibition) at 1uM
CC1(C)Cc2c(c(-c3ccco3)nc3sc4c(NCC5CCCO5)ncnc4c23)CO1 (stereo not shown) | 16.5%
Cc1cnc(C(=O)Nc2ccc(C(C)C)cc2)cn1 | 8.65%
O=C(CCCc1nc(-c2ccccc2)no1)NC1CCCC1 | 8.49%
COc1ccc(CN(C)c2ncnc(N)n2)cc1 | 12.9%
COc1ccccc1N(Cc1cc2cccc(C)c2[nH]c1=O)C(=O)C(C)C | 9.48%
CCOc1ccccc1-c1nc(C(N)=O)c2[nH]c(=O)n(-c3ccc(F)cc3)c2n1 | -4.73%
CCN(CC)C(=O)c1cc([N+](=O)[O-])cc2c1-c1ccc([N+](=O)[O-])cc1C2=C(C#N)C#N | 4.68%
O=C(NCc1ccccc1)c1csc2c1CCCCC2 | 13.4%
CCn1c(SCC(=O)Nc2cc3oc4ccccc4c3cc2OC)nnc1-c1cccs1 | 9.72%
O=C(Nc1ccc(S(=O)(=O)Nc2nccs2)cc1)C1CC(=O)N(c2ccc(Cl)cc2)C1 (stereo not shown) | 15.9%
O=c1c(Cl)c(N/N=C/c2ccc(Br)cc2)cnn1-c1ccccc1 | 11.3%
COc1cc(C)ccc1S(=O)(=O)NC1CC(C)(C)NC(C)(C)C1 | 6.5%
CC(=O)OCc1c(C(F)(F)F)nn(C)c1Oc1cccc(C(F)(F)F)c1 | -1.36%
CC1(c2ccc3ccccc3c2)NC(=O)N(CC(=O)N2CCC(C(N)=O)CC2)C1=O (stereo not shown) | 10.9%
O=C(NCCc1ccccc1F)C1CCCN1S(=O)(=O)c1ccccc1 (stereo not shown) | -6.4%
O=C(Oc1csc(=S)n1C(=O)c1ccccc1)c1ccccc1 | 7.91%
O=[N+]([O-])c1cc(-c2cnc3ccccc3n2)ccc1Oc1ccc(Cl)cc1 | 3.25%
CC1(C)Oc2ccccc2OC1(O)c1ccc2ccccc2n1 (stereo not shown) | 14.2%
CC(=O)N(c1cccc(C)c1)C1SC(=O)N(c2ccccc2)C1=O (stereo not shown) | 8.87%
Cc1ccc(OCC(=O)N(C)Cc2ccccc2)c([N+](=O)[O-])n1 | -3.91%
O=C(c1ccco1)N1CCN(C(c2ccccc2)c2nnnn2Cc2cccs2)CC1 (stereo not shown) | -3%
Cn1cccc1Cc1nnc(SCC(=O)NCc2ccc(F)cc2)n1-c1ccc(F)cc1 | -11%

Structure (SMILES) | hERG current change (%, negative = inhibition) at 1uM
Cn1c(=O)n(C)c2cc(/C=C3/NC(=O)N(Cc4ccccc4)C3=O)ccc21 | 8.11%
COc1ccc(N(CC(=O)Nc2c(C)n(C)n(-c3ccccc3)c2=O)S(=O)(=O)c2ccccc2)cc1OC | 2.19%
O=[N+]([O-])c1ccc(/C=N/Nc2nc(N3CCCCC3)nc(N3CCCCC3)n2)o1 | 10.8%
Cc1cccc(C(=O)N[C@H](C(=O)Nc2ncc(C)s2)C(C)C)c1 | 18.7%
CN(CC(=O)NCc1ccccc1Cl)CC(=O)Nc1ccccc1Br | 4.04%
O=C1NC(=O)N(c2ccccc2)C(=O)/C1=C/c1ccc([N+](=O)[O-])s1 | 9.71%
Oc1c(C(Nc2cccc(C(F)(F)F)c2)c2cccnc2)ccc2cccnc12 (stereo not shown) | 13.6%
O=P(O)(O)O.c1ccc(CSCCc2ccncc2)cc1 | 5.33%
COc1ccccc1C(=O)C1CCCN(C(=O)c2ccccc2Cl)C1 (stereo not shown) | 15.7%
O=c1c2ccccc2[nH]c(=S)n1-c1cccnc1 | 10.6%
CCc1ccc2[nH]c(=O)c(CN(CCN(CC)CC)C(=S)NCc3ccco3)cc2c1 | -15.2%
CCCCC(=O)Nc1ccc2c(c1)nc(CCN1CCN(c3ccccn3)CC1)n2C | -15.3%
CCc1cc2c(=O)c(-c3ccc(F)cc3)c(C)oc2cc1OCC(=O)O | 16.4%
O=C(CNC(=O)c1ccc(Br)cc1)Nc1ccc(Br)cc1C(=O)c1ccccc1 | 14.3%
Cc1cc(C)c(OCC(=O)Nc2ccc(S(=O)(=O)N3CCOCC3)cc2)c(C)c1 | 10.5%
Cl.Nc1nc2cc3ccccc3cc2[nH]c1=O | 10.9%
CCOc1ccc(NC(=O)CS(=O)(=O)c2cn(CC)c3ccccc23)cc1 | 17%
COc1cc(CNCCO)ccc1OCCc1ccccc1 | 9.58%
NC(N)=NS(=O)(=O)c1ccc(N=C2C(=O)Nc3ccccc32)cc1 | -11.4%
